# According to paper PMC10668032:
# The other results are listed elsewhere or left out. At the low end of the ranking the order means little.
# Target: SIX1-Q177R homeodomain (UniProt Q15475)
# Test: universal protein binding microarray
# Details: Universal all-10-mer PBM (8x60K, AMADID 030236), 300 nM GST-tagged protein, Alexa Fluor 488 anti-GST; buffer, salt, pH and temperature not stated; high values mean tight binding; most listed sequences are background and not binding sites; double strand, one strand shown
row,Sequence,binding signal [E-score]
1,GGGGGGGA,0.0439
2,ATATTCCG,-0.0282
3,AGGAAAGA,-0.198
4,GAGCGGGA,-0.0624
5,CGTATCGA,-0.00856
6,ACGTGCTC,0.215
7,AAGGGAGG,-0.0551
8,ACCGCCAG,0.125
9,ACGCGAGC,-0.0331
10,GAAAAAGC,-0.257
11,ATGCCTGC,-0.158
12,CAAAGCTG,-0.159
13,ATTAGGAA,-0.0661
14,CGGCGGAA,-0.116
15,AGCAAAAA,-0.172
16,ATAATACC,0.0121
17,CGCCTATA,0.00545
18,AATGGATC,-0.0158
19,AATGGTGC,0.126
20,ACGCGAAG,-0.0656
21,ATCAACTC,-0.00642
22,CTTCAAAC,-0.115
23,GTCCTTTA,-0.0967
24,TGGTCCAA,-0.0811
25,CTGGATCA,0.1

row,Sequence,binding signal [E-score]
1,ATTAATAC,0.0822
2,AAGCGCTG,-0.216
3,AGCAGGTC,-0.293
4,ACGACTGA,-0.121
5,CACGGCCC,0.215
6,GCGCCCCC,-0.0635
7,GAGAATAC,0.194
8,CAAGACTG,-0.108
9,GATCGTGC,0.012
10,GACTCAGC,-0.179
11,GTCCGAAA,-0.218
12,CGCTTTGA,-0.0323
13,ATTCATTC,-0.0622
14,TATTACGA,-0.226
15,AGGAGTAA,0.135
16,TACTGGCA,-0.108
17,GATGTCCC,-0.219
18,CTCCGCAA,-0.0125
19,CCTGCCCA,0.0631
20,AGATGATC,-0.0253
21,ACAGCCGA,0.02
22,GGCGGTAC,0.0715
23,GGAGTGTA,0.417
24,CCCATGGA,0.189
25,CGCTTGCA,0.024

row,Sequence,binding signal [E-score]
1,CATTCACG,-0.153
2,AATAAGCA,0.136
3,GTCTGGTA,0.0736
4,ATGATAAC,-0.136
5,CACGCCGG,0.287
6,AAGGAAAG,-0.361
7,AGCCAATC,-0.125
8,CGAACGAA,-0.143
9,ATTTTTTG,-0.176
10,CACGTAGC,0.0183
11,AGCACCGC,0.288
12,CTCGGGAA,-0.0137
13,AACAGCCT,-0.249
14,CATAGCTC,-0.131
15,CGACGCCA,0.0788
16,ATTGCGAC,-0.00343
17,AAGTACCC,0.205
18,CCTACCCC,0.227
19,ATGAATAC,-0.0199
20,CTACCCAC,0.111
21,GTACCAAA,-0.0604
22,GACGCGGA,0.00938
23,CCACAAGC,-0.153
24,GCGACTCA,-0.0999
25,TTATATAA,-0.181

row,Sequence,binding signal [E-score]
1,CTCACGAC,-0.213
2,CAGACCCA,-0.089
3,AGTCAGGC,-0.174
4,AGAATATG,-0.0948
5,CTGCGCAG,-0.241
6,GATACACA,0.191
7,AAGCGCGT,-0.228
8,AGTTGGTG,0.288
9,ATATACGG,0.0681
10,ATCTCACA,0.119
11,CCCCCATA,0.192
12,GACTCCAC,0.211
13,ATTAAGTG,0.131
14,TGCGTCAA,-0.161
15,GATCCTAC,0.104
16,ATAGATAA,-0.159
17,AGGTTTGG,-0.134
18,ACAGGTTC,-0.0948
19,CGTTCGCC,-0.0626
20,CGACAGGC,-0.214
21,CCCCACCG,0.228
22,ATTGCAGA,-0.0125
23,GATACCCC,0.419
24,ATCTAGGC,-0.118
25,GTAATTAC,0.0374

row,Sequence,binding signal [E-score]
1,ATGCGGGC,-0.118
2,AAGTCGGA,-0.0895
3,ACTCGCTA,0.115
4,AAGAGTAG,-0.0152
5,GCGCCACC,-0.126
6,CTTCATCA,-0.182
7,GAATGAGC,-0.0151
8,CTCGCGAG,-0.0818
9,CGATATCA,-0.166
10,AGCGGCCG,-0.308
11,GCGTCTTA,-0.0916
12,TAAATTCA,-0.277
13,GATGATGA,-0.164
14,GACGTCCA,-0.273
15,AATTGGCA,-0.128
16,GCGTCCGA,0.09
17,CCTTTTAA,-0.148
18,AAGTCTGG,-0.0965
19,AGGTCGTC,-0.111
20,CTTCTCAA,-0.219
21,GAAAGCAA,-0.149
22,GCGCTCTA,-0.186
23,CATGCATA,-0.158
24,CCATCCCG,0.119
25,CATGCAAG,-0.0539

row,Sequence,binding signal [E-score]
1,AGACGCAA,-0.177
2,TGTACTAA,0.0427
3,AAGCACAT,-0.258
4,CGGTCAAG,0.0346
5,ATTCAGTG,0.0364
6,CCTGCTGC,-0.211
7,ACTGACTC,0.0799
8,ATGTCTTG,-0.24
9,AAATAGAG,-0.201
10,AAACCGGA,-0.163
11,CCCCATTC,-0.0246
12,CGCGAAAC,0.0125
13,TAGCGCAA,-0.168
14,GAGATGCA,-0.113
15,CAGATCCA,-0.0662
16,CCTATCAG,0.0323
17,CGCTACTC,0.11
18,ATCATAAG,0.185
19,AGAAGTGG,-0.0891
20,CTCGTTGC,0.0145
21,ACAGTCAT,-0.118
22,CCCCGCGG,0.193
23,AATCAGCT,-0.0853
24,ACTATCCT,-0.035
25,GGATAACC,0.0698

row,Sequence,binding signal [E-score]
1,ATCCTTCA,0.0422
2,ACCTTAGG,0.0181
3,ATCCGGAG,0.216
4,ACCGGATA,0.185
5,CAGAGTCC,0.0042
6,TAGAGTGA,0.0564
7,CATACGTC,-0.238
8,AAGACAAC,-0.0692
9,AGGCCGCG,-0.335
10,CATGAACA,0.0466
11,AGATCACC,-0.139
12,AAACGTCA,-0.309
13,AGGGGTCC,0.178
14,TGGTCAAA,-0.238
15,GGGTCGCA,0.0215
16,GGTCGCGA,-0.0426
17,ATGGAAAA,0.0701
18,CGCTTCCA,-0.145
19,ACTCATCA,-0.29
20,AAGCCCAT,-0.154
21,GTCGATGA,-0.0796
22,CACACACA,0.184
23,TCCAGGCA,-0.0314
24,ATAGAAGG,0.0135
25,CGCGACAA,-0.12

row,Sequence,binding signal [E-score]
1,GAAACCAA,-0.062
2,GAAGGGCC,-0.225
3,AACTAGTG,0.135
4,GCCCGAGA,-0.0128
5,ACCAGTCA,0.0218
6,TACGGATA,0.119
7,AATGTTGT,-0.234
8,CTTACCAC,-0.0117
9,ATACGTCC,0.0352
10,AACAATTC,-0.238
11,ACATCGGG,-0.0903
12,CATGGGAC,-0.0521
13,CCCTCGCA,0.0759
14,ATTACAGA,-0.195
15,CTAACGAG,-0.0965
16,AAGTTGTG,-0.127
17,AAGTCGCC,-0.16
18,CCTATATA,-0.122
19,TCTAAGCA,-0.171
20,GCCGCCGA,0.0761
21,GGGGTCTA,0.229
22,ATGCAGTC,-0.109
23,ACTAGCCT,-0.199
24,AAGCTCGA,-0.136
25,ATCAGTAA,0.164

row,Sequence,binding signal [E-score]
1,CATGTAAA,-0.13
2,ACGACCAC,0.0943
3,GACGACTC,0.146
4,ATCTGGCA,-0.152
5,TCGCGGAA,0.0246
6,GCACTGTA,-0.117
7,TATCAAAA,0.00255
8,CTAACTTA,-0.188
9,CAATCGGA,0.118
10,AAGGACCG,-0.282
11,CTACACTA,0.401
12,TCCTATCA,0.147
13,CAGGCTTA,-0.297
14,AAGACCAC,-0.0924
15,GAGATTTA,-0.0534
16,TATCGCGA,-0.156
17,AGATCACT,-0.0196
18,ACAATATC,-0.124
19,AGTATCTC,0.0384
